# The whole screen tested about 150,000 compounds, of which about 540 (0.36%) showed an effect of 50% or more. The list shows a part of the results.
# System: Plasmodium falciparum
# Assay: Primary screen in NF54 nanoGlo assay, in single point, at 2uM, 72h; a lower Z score goes with more inhibition
# Type: functional, Erythrocyte
# Details: timepoint 72 hour
SMILES,% Inhibition,Z score
CON1C(=O)C(=O)N(OC)C2CCCCCC21 (centres undefined),8%,-1.43
CCOCC(=O)NC[C@H](OC)c1ccc(C)s1,10%,-1.27
CC(C)S(=O)(=O)CC(=O)N1[C@@H](C)CCC[C@H]1C(=O)OC(C)(C)C,8%,-0.87
CN1C[C@H]2CC[C@@H](C1)N(C(=O)c1ccc(C(=O)N3CCOCC3)cc1)C2,-6%,1.15
CCc1nc(CNc2nc(C)ncc2CC)cs1,-7%,1.19
C=CCNc1ncc(C2(c3ccccc3)CCCC2)s1,-1%,0.21
Cc1cc(C)c(S(=O)(=O)CCC#N)c(C)c1,-2%,0.29
COC(=O)c1cn(C2CCCCC2NS(=O)(=O)c2ccc3c(c2)CCCC3)nn1 (centres undefined),-4%,0.83
N#Cc1cc(N2CC[C@@](O)(C(N)=O)C2)ccn1,-12%,1.53
C[C@@H](O)[C@@H]1NC(=O)[C@@H](Cc2c[nH]c3ccccc23)NC1=O,5%,-1.07
CC(C)N(C)Cc1ccc(CNC(=O)c2cccc3c2O[C@@H](C)C(=O)N3)cc1,4%,-0.42
Cc1cccc(N2CCN(C(=O)c3cc(-c4ccccc4)[nH]c3C)CC2)c1C,8%,-1.05
O=C(CCc1cccc(Br)c1)Nc1cccnn1,-13%,1.06
CNCc1cc(-c2ccc3[nH]ccc3c2)ccc1OC,4%,-0.49
O=C(NCc1ccccn1)C1=NN(c2ccc(Cl)cc2)c2ncccc2S1(=O)=O,-10%,1.25
O=C(c1cc(Br)cc(Br)c1O)c1nn[nH]c1C(F)(F)F,5%,-0.62
c1ccc(CO[C@H]2COCC[C@@H]2Nc2ncnc3[nH]cnc23)nc1,-12%,2.41
c1cnc(N[C@H]2CCN(Cc3cc4n(n3)CCC4)C2)nc1,5%,-0.88
CCOC(=O)c1ccc(NC(=O)Cc2cncn2C)c(NC(C)C)c1,-6%,0.84
O=C(NCc1csc(N2CCOCC2)n1)c1cnccn1,-11%,1.79
Cc1ncc2c(c1-c1noc(CN3CCCCCC3=O)n1)CCNC2,-3%,0.63
O=C(NC1(c2c(F)cccc2F)COC1)c1cnn2c1OCCC2,8%,-0.95

SMILES,% Inhibition,Z score
CC(C)n1cc(CNCc2nc(N(C)C)no2)cn1,-6%,1.15
CC(C)C[C@H](NC(=O)c1ccnn1C(C)C)C(N)=O,11%,-1.48
COc1cc(OC)cc(N(C)C(=O)c2cscn2)c1,15%,-1.47
CC(C)C(=O)NCCC(=O)Nc1ccc(F)cc1,-4%,0.53
CC(C)CNS(=O)(=O)c1cc(-c2nc(C(C)(C)C)cs2)cs1,1%,-0.17
C[C@H](Oc1ccccc1Br)c1nc(-c2nonc2N)no1,-31%,3.69
CN(C)c1ccc(C(=O)N2CCc3c2cccc3C(F)(F)F)cn1,-6%,0.97
CCC[C@H](C)NC(=O)C1CCN(S(=O)(=O)c2ccc3c(c2)CCC3)CC1,-7%,1.33
C#CCCCC(=O)N1CC2(CCN(C(=O)OC(C)(C)C)CC2)C[C@@H]1C,-8%,1.18
COc1ccc(C[C@H]2CCOC3(CCN(C(=O)c4cccc(C#N)c4)CC3)C2)cc1,-19%,2.41
CCc1ccc(CN2CCC(CNC(=O)c3ccncc3)CC2)nc1,2%,-0.26
C[C@@H](c1ccc2c(c1)CCC2)n1cc(C(=O)N(C)C)nn1,0%,0.02
COCCn1nnc2c1CCN(C(=O)c1cnn(Cc3ccc(OC)cc3)c1)C2,-7%,1.58
CCc1ccc(-c2cc(C(=O)N3CCN(c4ncccn4)CC3)c3ccccc3n2)s1,-6%,1.2
Cc1ncn(C)c1C(=O)NCCCOc1cccnc1,3%,-0.5
O=C(NCCc1ccccn1)N1CCC[C@H]1c1ccc2c(c1)OCCO2,3%,-0.4
Cc1cc(N2CCC(NC(=O)c3cnn(C)c3)CC2)c(C#N)c(C)n1,-2%,0.29
CN(C)C(=O)c1ccc(-c2ccc(C(=O)N3CCc4n[nH]cc4C3)cc2)o1,-15%,2.32
Cn1c(C(F)(F)F)nn(C2CCN(S(=O)(=O)c3ccc4c(c3)CCO4)CC2)c1=O,-11%,1.2
CCc1ccc(CS(=O)(=O)NC(=O)c2cn3ccnc3s2)cc1,39%,-5.57
CCOc1cc(N2CC=C(c3cccnc3)C2)nc(C)n1,-2%,0.29
CC(C)CNC(=O)NC(=O)CN1CCCC[C@@H]1C,-4%,0.46

SMILES,% Inhibition,Z score
Cc1cccc(C(=O)N[C@H]2CCOC[C@H]2C2CCOCC2)c1F,-8%,0.86
O=C(Nc1ccccc1Cl)[C@@H]1CN(C(=O)Cc2cccs2)CCO1,-16%,2.87
Cc1cc(NC(=O)[C@H]2CCCN(C(=O)c3ccc(Cl)c(Cl)c3)C2)no1,-2%,0.17
COCCCOC1CN(C(=O)c2ccoc2C)C1,32%,-3.58
CC(C)(C)OC(=O)N1CCC(=O)C12CCC2,6%,-0.89
COc1ccc(OC)c(N2C(=O)c3cccnc3[C@H]2Nc2ccc3c(c2)OCCO3)c1,-1%,0.09
O=C(C1CCN(c2ccc(F)c(F)c2)C1=O)N1CC2CCCC2C1 (centres undefined),-4%,0.67
C[C@H](NC(=O)NCCc1nccn1C(F)F)c1nccs1,16%,-1.99
Cc1nc(C(C)(C)C)sc1[C@H](C)NCc1nccn1CC(C)C,1%,-0.1
C[C@H](NC(=O)c1ccc(-c2noc(C3CC3)n2)cc1)c1n[nH]c(N)n1,-4%,0.79
N#CC1CCN(C(=O)NC2CCCC2)CC1,-18%,2.24
CC(C)NC(=O)N1C[C@H]2CCCC(=O)N(Cc3cccc(F)c3)[C@H]2C1,36%,-0.74
CCS(=O)(=O)c1ccc(N2CC(C)CC2c2cccnc2)cc1 (centres undefined),5%,-0.5
CCc1nn(-c2ccc(F)cc2)c(N2CCN(C(C)C)CC2)c1CN(CC(C)C)C(=O)C1CCCCC1,-16%,2.24
Cc1ccc2nonc2c1S(=O)(=O)Nc1ccc(F)cc1,10%,-1.34
Cc1nc[nH]c1CN(C)Cc1c(C)noc1C,7%,-0.96
CNc1nc(C(N)=O)c(NC(=O)CCc2c(C)noc2C)s1,-10%,0.94
O=C(c1cc(C2CC2)[nH]n1)N1CCc2nocc2C1,10%,-1.42
NC(=O)C1(CNc2ncccc2Cl)CCOCC1,-1%,0.14
CC1=CCCN(C(=O)Nc2ncc(C3CCOCC3)s2)C1,-1%,0.28
Cn1ccnc1N1CCN(c2ncc(Cl)cn2)CC1,-14%,2.61
Cc1nn(C)c(C)c1CCC(=O)N1CCNC(=O)[C@@H](CC(C)C)NC(=O)c2cc(F)ccc2OCCn2cc(nn2)CC1,-19%,2.13

SMILES,% Inhibition,Z score
O=C(c1nc2ccccn2c1F)N1CCC(c2nnc3n2CCCCC3)CC1,-10%,1.8
CS(=O)(=O)c1ccc(C(=O)Nc2cccnn2)cc1,-3%,0.52
Cc1noc2ncnc(NCCN3CCOC3=O)c12,-10%,1.05
CCN(CCC(F)(F)F)C(=O)c1ccc(C)s1,2%,-0.3
C#CCCCCC(=O)Nc1cnccc1N1CCOCC1,-9%,0.8
CC(C)C[C@H](NC(=O)N1C2CCC1CC1(CC1)C2)C(=O)N1CCOCC1,-3%,0.47
Cc1cnc(C[C@H]2CCCN(Cc3ccccc3)C2)n1Cc1ccccc1,6%,-0.92
CCN1CCCCc2cc(C(=O)N[C@H]3CCS(=O)(=O)C3)sc21,-2%,0.2
Cc1cccc(N(CC(=O)Nc2ccc(OC[C@H]3CCCCO3)cc2)S(C)(=O)=O)c1,-25%,2.55
CC(C)(C)OC(=O)NC1CCN(CC(C#N)CCC#N)C1 (centres undefined),-11%,1.41
CN(Cc1cc2n(n1)CCNC2)Cc1nc(-c2ccccc2)cs1,-12%,1.54
O=C(Cc1cccs1)NCCc1nc(C2CC2)cc(C(F)(F)F)n1,-9%,1.03
CC(C)(NCc1cc(Cl)sc1Cl)c1nnc2n1CCCC2,4%,-0.69
COCCCN(C)CCNc1ncc(Cl)cc1F,-4%,0.49
O=C1c2ccccc2C(=O)N1CCCc1nc(C2CCCC2)no1,-11%,1.27
Fc1ccccc1Oc1nc(N2CCCCC2)nc2c1CN(Cc1ccc3c(c1)OCO3)CC2,-5%,0.68
O=C(CCc1c[nH]c2ccccc12)N1CC(N2CC(F)(F)C[C@H]2CO)C1,-8%,0.87
O=C(OCC(=O)N1CCCc2ccccc21)c1cnccn1,-10%,1.86
CCCc1noc([C@H](C)Nc2ccc(OC)nc2)n1,10%,-1.26
Nc1nc(NC2CC2)cc(N2Cc3cnn(CCO)c3C2)n1,-17%,2.19
O=C(Nc1cccc(F)c1)N1CCC2(CC1)N[C@@H](Cc1ccccc1)C(=O)N2Cc1ccccc1,-11%,1.32

# From ChEMBL document CHEMBL4888484, “Replenishing the malaria drug discovery pipeline: Screening and hit evaluation of the MMV Hit Generation Library 1 (HGL1) against asexual blood stage Plasmodium falciparum ,using a nano luciferase reporter read-out” (2022)
